Laboratory results taken from PMC4336329 (PLoS ONE, 2015).
Out of some 310,000 compounds screened, about 2,200 (0.71%) showed an effect of 50% or more. The effect is printed as a negative number. The list shows a part of the results.

What follows are compounds tested against human ether-à-go-go-related gene (hERG) potassium channel (human, UniProt Q12809) (assay: primary screen, population patch clamp on CHO cells stably expressing hERG).
Sequence of human ether-à-go-go-related gene (hERG) potassium channel (Q12809 whole entry, looked up): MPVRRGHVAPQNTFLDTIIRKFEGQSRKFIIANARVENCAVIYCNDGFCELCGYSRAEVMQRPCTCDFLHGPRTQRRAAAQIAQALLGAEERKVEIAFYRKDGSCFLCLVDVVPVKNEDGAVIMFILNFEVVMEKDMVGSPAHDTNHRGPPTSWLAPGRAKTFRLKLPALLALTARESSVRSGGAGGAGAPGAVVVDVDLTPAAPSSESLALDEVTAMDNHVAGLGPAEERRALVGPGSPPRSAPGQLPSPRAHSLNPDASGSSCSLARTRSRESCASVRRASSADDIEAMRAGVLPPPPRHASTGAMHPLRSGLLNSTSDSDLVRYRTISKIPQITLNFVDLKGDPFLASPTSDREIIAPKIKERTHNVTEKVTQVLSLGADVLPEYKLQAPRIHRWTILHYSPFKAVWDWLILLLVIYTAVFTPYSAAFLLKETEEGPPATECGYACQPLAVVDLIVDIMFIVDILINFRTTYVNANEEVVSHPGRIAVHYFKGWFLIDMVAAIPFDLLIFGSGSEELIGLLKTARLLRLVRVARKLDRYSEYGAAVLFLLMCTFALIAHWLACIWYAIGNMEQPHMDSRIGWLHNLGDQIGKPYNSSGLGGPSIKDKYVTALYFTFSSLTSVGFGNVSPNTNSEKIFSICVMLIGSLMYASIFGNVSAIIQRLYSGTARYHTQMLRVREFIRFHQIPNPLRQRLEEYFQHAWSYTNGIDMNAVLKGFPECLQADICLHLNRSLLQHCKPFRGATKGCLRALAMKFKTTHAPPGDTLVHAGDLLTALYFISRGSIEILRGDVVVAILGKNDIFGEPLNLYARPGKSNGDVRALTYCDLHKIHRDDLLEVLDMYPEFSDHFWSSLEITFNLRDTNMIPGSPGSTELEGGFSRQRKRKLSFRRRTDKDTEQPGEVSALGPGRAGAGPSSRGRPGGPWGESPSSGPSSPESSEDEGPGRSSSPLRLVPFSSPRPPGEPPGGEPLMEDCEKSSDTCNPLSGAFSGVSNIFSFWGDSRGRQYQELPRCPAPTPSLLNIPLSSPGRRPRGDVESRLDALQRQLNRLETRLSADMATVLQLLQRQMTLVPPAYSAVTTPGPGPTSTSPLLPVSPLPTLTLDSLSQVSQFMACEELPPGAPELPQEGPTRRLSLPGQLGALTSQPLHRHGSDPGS

Compound | hERG current change (%, negative = inhibition) at 1uM
COc1ccc(C(C(=O)NC(C)(C)C)N(C(=O)CCC(=O)Nc2cc(C)on2)c2cc(C)cc(C)c2)cc1 (centres unmarked) | 11.5%
COc1ccc(-c2noc(CCC(=O)Nc3ccc(C)c(C)c3)n2)cc1 | 7.73%
COc1ccc(C(=O)N2CCN(Cc3cc(OC)c(O)c(OC)c3)CC2)cc1OC.O=C(O)C(=O)O | 21.1%
Cc1nc2ccc(NC(=O)c3ccc(N4C(=O)CCC4=O)cc3)cc2s1 | 5.89%
COc1ccc(OCc2nc(N)nc(Nc3ccccc3)n2)cc1 | 7.66%
CCOC(=O)C(C)Sc1snnc1C (centres unmarked) | 11.8%
O=C(O)c1ccccc1/C=N/N1CCN(C2c3ccccc3-c3ccccc32)CC1 | 8.28%
COc1cccc(CNC(=O)Cc2ccc(NC3=NC4CS(=O)(=O)CC4S3)cc2)c1 (centres unmarked) | 6.79%
COc1ccc(COn2nnc3ccc(S(=O)(=O)N4CCOCC4)cc32)cc1F | 4.18%
FC(F)(F)c1cccnc1-n1cncn1 | 5.22%
CC(C)(C)NC(=O)COC(=O)/C=C/c1ccccc1[N+](=O)[O-] | 14.9%
COc1ccc(OC)c(Nc2cc(C)c3ccccc3n2)c1 | 9.76%
CCOC(=O)C1=C(O)/C(=C/c2ccc(OCC(=O)Nc3ccc(C)cc3)cc2)N=C1C | 10.6%
O=C(CN1CCC(C(=O)c2ccc3c(c2)OCCO3)CC1)NCc1ccc(F)cc1 | 3.51%
Cc1nn(CC(=O)NCc2cccnc2)c(C)c1[N+](=O)[O-] | 8.64%
Cc1noc(C)c1S(=O)(=O)Nc1ccc(C(=O)NCc2ccccc2)cc1 | 10.5%
COc1ccc(Cc2c(O)nc(SCC(=O)N3CCOCC3)[nH]c2=O)cc1 | 12%
CC(=O)Oc1cccc(/C=C2\C=C(c3ccc(C)cc3)OC2=O)c1 | 12.2%
CCc1nccn1CCC(=O)N1CCCC(N2CCN(c3ccccc3C)CC2)C1 (centres unmarked) | -17.4%

Compound | hERG current change (%, negative = inhibition) at 1uM
O=C(N/N=C/c1ccc(-c2cccc(C(F)(F)F)c2)o1)c1ccccc1O | 8.36%
CCOC(=O)N1CCN(C(=O)c2cc3cc(OC)c(OC)cc3[nH]2)CC1 | 7.4%
O=C(COc1ccccc1)Nc1ccc2c(c1)C(=O)N(CC1CCCO1)C2=O (centres unmarked) | 11.9%
CC1(C)CC(=O)C/C(=N\NC(=O)CCc2ccc(S(=O)(=O)N3CCOCC3)cc2)C1 | 12.6%
COc1ccc2c(Cl)c(C(=O)N/N=C/c3cccnc3)sc2c1 | 14%
COC(=O)c1cccc(NC(=O)CSc2nnnn2C)c1 | 18.9%
COc1ccc2nc(NC(=O)CN3C(=O)NC4(CCCCC4)C3=O)sc2c1 | 11.4%
Nc1n[nH]c(-c2ccc([N+](=O)[O-])cc2[N+](=O)[O-])n1 | 5.09%
CCOc1ccc(S(=O)(=O)Nc2ncn[nH]2)cc1 | 10.6%
O=S1(=O)CCO[C@H]2Cc3ccccc3[C@H]2N1Cc1ccccc1F | 2.14%
CCc1ccc2[nH]c(C(=O)Nc3ccc4c(c3)OCO4)cc2c1 | 15.8%
CCc1ccc(C2C(C(=O)O)c3ccccc3C(=O)N2C)cc1 (centres unmarked) | 0.852%
CC1(O)N(Cc2ccccc2)C(=O)OC12CCCCC2 (centres unmarked) | 6.86%
O=C(NC1(Cc2ccc(O)cc2)CCCCC1)c1ccccc1 | 8.73%
CC[C@@H]1Cc2cc(O)ccc2C2=C1c1ccc(O)cc1C[C@H]2CC | -4.28%
CN1C(=O)N(CN2CCCCC2)C2C1N(C)C(=O)N2CN1CCCCC1 (centres unmarked) | -1.43%
O=C1C=C(c2ccnc3cc(Cl)ccc23)C[C@@H](c2ccc3c(c2)OCO3)C1 | 9.28%
CCOP(=O)(C#CC(C)(C)C)C(C)(O)c1ccccc1 (centres unmarked) | 15.1%
C=CCn1c(-c2cccs2)nc2nc3ccccc3nc21 | 12.5%

Compound | hERG current change (%, negative = inhibition) at 1uM
CC(SCc1ccccc1)C(=O)Nc1ccccc1Br (centres unmarked) | 8.31%
O=C(NC(=S)NNC(=O)c1cnccn1)c1ccc(F)cc1 | 8.25%
C=C1CCN([C@@H](Cc2ccccc2)C(=O)NCc2ccc(Cl)c(Cl)c2)S(=O)(=O)c2ccccc21 | 15.2%
O=C(NCc1ccncc1)c1ccc(Cl)c(S(=O)(=O)N2CCCCC2)c1 | 11%
Cc1cc(C)n(CC(O)COc2ccccc2Br)n1 (centres unmarked) | 15.7%
COc1ccccc1N(CC(O)CN1CCCCC1)S(=O)(=O)c1ccc(C)cc1 (centres unmarked) | 2.61%
Cc1ccc(NC(=O)C2CCN(S(=O)(=O)c3ccc4c(c3)OCCO4)CC2)c(O)c1 | 6.18%
CC(Sc1nc(O)c(-c2ccccc2)c(=O)[nH]1)C(=O)Nc1ccc(Cl)cc1 (centres unmarked) | 16.5%
Cc1cc(C)nc(NC(=O)Nc2ccc3c(c2)OCO3)c1 | 6.32%
COc1ccccc1/C=N/n1c(N)c(S(=O)(=O)c2cccs2)c2nc3ccccc3nc21 | 8.89%
O=C(Cn1cnc2c(nc3n2CCCCC3)c1=O)Nc1cccc(C(F)(F)F)c1 | -14.6%
CN=C1SC(CC(=O)Nc2ccc(C(=O)O)cc2)C(=O)N1C (centres unmarked) | 6.36%
Cc1cc(C)n(C2CC(=O)N(c3cc(Cl)cc(Cl)c3)C2=O)n1 (centres unmarked) | 10.4%
CC(C)c1nnc(NC(=O)CS(=O)(=O)Cc2ccccc2)s1 | 8.73%
N#CCN1CCC2(O)CCCCC2C1c1ccc2c(c1)OCO2 (centres unmarked) | -0.991%
CC(=O)Nc1ccc(S(=O)(=O)NCCSCc2c(Cl)cccc2Cl)cc1 | 18.9%
CCOC(=O)c1c(NC(=O)CC2Sc3ccc(C(F)(F)F)cc3NC2=O)sc(C)c1C (centres unmarked) | 12.6%
COc1ccc(-c2cc(C)no2)cc1S(=O)(=O)Nc1cccc(C)c1 | 15.5%
